Results published in patent US20060148725A1, “Selective 11beta HSD inhibitors and methods of use thereof” (The Miriam Hospital, priority 2001, published 2006).

What was measured:
rat aortic rings = assay: Contractile response of rat aortic rings to phenylephrine; type: cell-based
Procedure: Male Sprague-Dawley (1 50-200 g) rats were anesthetized with pentobarbital (50 mg/kg IP), and a median sternotomy was performed followed by the rapid removal of the thoracic aorta. The adventitia was removed, but the endothelium was left intact. The aorta was cut into 2-3 mm rings and individual rings were placed into a single well of a twenty four well culture plate and incubated at 37° C. under 95% O2-5% CO2. Each well contained 1 mL of DMEM/F12 containing 1% fetal bovine serum, streptomycin (100 μg/ml), penicillin (100 units/ml) and amphotericin (0.25 μg/ml). Aortic rings were incubated for 24 hours prior to contractility measurements with the following combinations of steroids, and antisense/nonsense oligonucleotides (3 μmol/L): • Corticosterone (10 mnol/L)+11β-HSD2 antisense or 11β-HSD2 nonsense oligomer • Corticosterone (10 nmol/L)+11β-HSD1 antisense or 11β-HSD1 nonsense oligomer • In 11-dehydrocorticosterone experiments with vehicle alone • 11-dehydrocorticosterone (100 nmol/L)+11β-HSD1 Antisense or 11β-HSD1 nonsense oligomer
Antisense phosphorothioate oligonucleotides, targeted to block either 11β-HSD2 or 11β-HSD1 gene expression, were obtained from Research Genetics, Huntsville Ala. Antisense oligomers complementary to 20 bp sequences spanning the ribosome binding/translation start site were used. Oligomer sequences were: 5′-CATAACTGCCGTCCAACAGC-3′ (SEQ ID NO. 2) for 11β-HSD1 Antisense and 5′-AGGCCAGCGCTCCATGACTT-3′ (SEQ ID NO 4) for 11β-HSD2 antisense. In control experiments the corresponding sense sequence was used as the nonsense oligomer. […]
For contraction measurements, aortic rings were suspended by tungsten wires with 1 g of tension and placed in a vessel bath containing serum free DMEM/F12 media at 37° C. aerated with 95% O2-5% CO2, at pH 7.4. […] The intensity of contraction was assessed by use of a Narishige micromanipulator and model FT03 force transducer (Grass Instrument Co. West Warwick, R.I.). Measurements were recorded on computer using the Labview 4.1 Virtual Instrument System (National Instruments, Austin, Tex.).

11β-HSD1 Reductase = 11β-HSD1 Reductase (Rattus norvegicus, UniProt P16232); assay: Metabolism of 3H-11-dehydrocorticosterone back to corticosterone by aortic rings; type: cell-based; set-up: from tissue; host or cells: rat (Sprague-Dawley) thoracic aortic rings, endothelium intact; conditions: with 11-keto-progesterone
Procedure: The effects of 11β-HSD1 and 11β-HSD2 antisense on the inter-conversion of ^3H-corticosterone and ^3H-11-dehydro-corticosterone by aortic rings was also determined. Rings (2-3 mm) obtained in a similar manner as those in the contraction studies, were incubated in 1 ml DMEM/F12 media containing 1% FBS at 37° C. under 95% O2-5% CO2 in 24-well culture plates. Rings were incubated for 24 hours with: • (i) ^3H-corticosterone (10 nmol/L)±11β-HSD2 or 11β-HSD1 antisense (3 μmol/L); control groups received nonsense oligomers. The amount of ^3H-11-dehydro-corticqsterone in the incubation medium after 24 hrs was then measured. The effects of 11β-HSD1 antisense/nonsense were measured in quadruplicate (n=6 aortic rings per well) and the effects of 11β-HSD2 antisense/nonsense in duplicate (n=8 aortic rings per well), • (ii) ^3H-11-dehydro-corticosterone (10 nmol/L)±11β-HSD1 antisense (3 μmol/L); this experiment was performed in duplicate (n=10 aortic rings per well). Control groups were incubated with the appropriate nonsense oligomer. ^3H-corticosterone in the incubation medium after 24 hrs was then measured. In this experiment, aortic rings were also analyzed for ^3H-corticosterone content. Rings from duplicate incubations (total n=20) were blotted dry, pooled and homogenized in 50 % methanol using a Polytron. […]

Sequence of UniProt P16232 (P16232 whole entry): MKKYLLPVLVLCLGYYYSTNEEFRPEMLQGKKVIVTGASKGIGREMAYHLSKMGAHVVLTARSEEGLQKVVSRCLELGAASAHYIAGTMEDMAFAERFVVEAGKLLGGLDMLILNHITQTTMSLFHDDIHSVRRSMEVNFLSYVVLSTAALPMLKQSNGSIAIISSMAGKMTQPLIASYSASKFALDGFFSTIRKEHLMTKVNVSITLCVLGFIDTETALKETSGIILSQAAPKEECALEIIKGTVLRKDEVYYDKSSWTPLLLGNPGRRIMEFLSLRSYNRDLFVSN

CC(=O)[C@H]1CC[C@@H]2[C@@H]3CCC4=CC(=O)CC[C@]4(C)[C@@H]3C(=O)C[C@]12C [11-Keto-progesterone]
ability of 11-dehydro-corticosterone to amplify the contractile effects of phenylephrine (rat aortic rings; with 11-keto-progesterone): diminished | metabolism of 11-dehydro-corticosterone back to corticosterone (11β-HSD1 Reductase): decreased

C[C@]12CC(=O)[C@H]3[C@@H](CCC4=CC(=O)CC[C@@]43C)[C@@H]1CC[C@@H]2C(=O)CO [reference compound]
effect of the steroid on contractile responses to phenylephrine (rat aortic rings; rat aortic rings, 11-dehydro-corticosterone 100 nmol/L, 24 hours): amplifies the contractile responses

11β-HSD1 antisense: Antisense phosphorothioate oligonucleotide blocking 11β-HSD1 gene expression, 5′-CATAACTGCCGTCCAACAGC-3′ (antisense CATAACTGCCGTCCAACAGC; all phosphorothioate, sugars by position and methylation of C not given here)
ability of 11-dehydro-corticosterone to amplify the contractile response to phenylephrine, compared to nonsense oligomers (rat aortic rings; rings incubated 24 hours with 11-dehydro-corticosterone 100 nmol/L and antisense 3 μmol/L, significant at 100 nmol/L and 1 μmol/L phenylephrine): attenuated
